# From the supplement of paper PMC10681739
# ± gives the standard deviation of the averaged measurements. Over roughly 4,000 sequences, “arbitrary fluorescence units” has its median near 830; the highest 2% begin near 6,500. This part holds few or none of the hits.
# Molecular target: RUNX1 (UniProt Q01196)
# Assay: RUNX1 binding intensity (PBM fluorescence), RUNX1 alone (arbitrary fluorescence units); higher = stronger binding
# Details: RUNX1 concentration 2 nM; ETS1 concentration 0 nM
# Procedure: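 gcPBM on 36-bp genomic-derived probes (partner site mutated) containing one RUNX1 site and no ETS1 site. Recombinant human RUNX1 (2 nM) was incubated alone or with ETS1 (25 nM) and detected by anti-RUNX1 antibody fluorescence. Values are medians over 4 replicate spots (not normalised). The probes sit in constant array flanks that are not printed.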
# 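Note: Full-length recombinant human RUNX1 bound to double-stranded DNA microarray spots, detected with an Alexa488-labelled secondary antibody after the anti-RUNX1 primary, read as scanned spot fluorescence.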
# Chain of UniProt Q01196 (Q01196 whole entry): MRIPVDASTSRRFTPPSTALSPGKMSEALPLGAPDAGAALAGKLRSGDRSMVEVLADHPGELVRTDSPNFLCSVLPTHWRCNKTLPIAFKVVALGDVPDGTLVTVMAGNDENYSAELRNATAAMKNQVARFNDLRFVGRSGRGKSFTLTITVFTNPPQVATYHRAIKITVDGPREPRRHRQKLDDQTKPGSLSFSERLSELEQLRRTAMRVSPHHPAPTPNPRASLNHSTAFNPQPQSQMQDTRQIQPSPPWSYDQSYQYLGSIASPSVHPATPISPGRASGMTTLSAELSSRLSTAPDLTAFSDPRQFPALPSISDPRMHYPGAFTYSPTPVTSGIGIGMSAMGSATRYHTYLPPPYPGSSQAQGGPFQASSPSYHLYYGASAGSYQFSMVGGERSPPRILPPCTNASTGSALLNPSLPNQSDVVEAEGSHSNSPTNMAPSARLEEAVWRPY
row,Sequence,RUNX1 binding intensity
1,TCCGCCCGCGGCTGCTGAGAACCGCAGCTGCACAAG,892
2,CCTTACTTTCGGGGTCGGCCCCGCCCGCAAGCGCCG,909
3,CTCGGCCACCGCGTGCTCCACTCGGCAGTGGTGCCG,756
4,TCCGTGCGGTGCAGCAGGTCGGTAGGCGGGAACTGG,694
5,TTTGTGGTCTCATGGAAAGAGCACACGATGCAGAAT,826
6,GACCTGCCTTCAGGCCTCCGTCACATGACCGCACAG,973
7,CCTCACTAACATGCTGTTGAGGTGTCCCACAAACCA,850
8,GCTCTGGCCGAAGATGTCCCTGCGGTGCAGCTGCCG,796
9,CCCAAGCTACTGAAGTTAAACCTCAAACATGAAATC,910
10,TTAGGACCCAGCGGTGGGCTCTCCGACAGGGGAAGG,661
11,CCATGCGCTGCTGCCTTCCACTTACCGCCCTCGCAC,1340
12,GCCTTGCGGCCTCTAGGTGCGGGCCGATAACAAAAC,696
13,AGGCGCCTGAAAAACTACATCTCCCACAATCCTCGG,869
14,TCCAAACCACATGAAATAAGCAAGGGAGGTGGCAGC,1340
15,CACCTGCGAAAGTCACAGGGAAGCCACAGAGAGATG,761
16,AGCCTCCGAGTCTGTTGTGGAGTGGGAACCGCGACT,807
17,TGATTCCTGTGGCTACAAGGCTCCCGGGAGTGTCAG,757
18,AAGGTTGCGGCTCACAGAGGCCGAACGTCCTCCGGG,785
19,ATCACTCACCACAAAAGTCCCTTCACACTGCCTCCC,3710
20,CGGCCTAGGCTTGCTGGCGTTCCTGCGGGCCGCGGA,716
21,GCCACCTCTTTCTGTGTTGCAAACCACAGGTCCACC,1800
22,TTCAGAGCTCCGCAACAGGGAAGACAGGCAGTCCCG,753
23,GCACCCTTGCTGATTCCCACAGTGTGGTATAAGAGG,780
24,TTGCAGAAGGTCCGTCGCTGCGGCGCGCTGCGCACC,662.4 ± 4.4
25,ATGTCTTCATGTACAGGAACTGGGTCCCAGCCGCAG,720
26,CTACCACTACCGCCGCCGCCGCCTACATTCCGTAAA,1650
27,ATCGACTACCGCATCTGCAGACGTGCGCGGAGATGG,756

row,Sequence,RUNX1 binding intensity
1,AGGCCACTGGGTCACCACAGGATCCGACTTCTCACA,797
2,GCACGGCTGAATTTCAAATGGGGTTTTGTGGTTTCT,1340
3,GCGGGCGTGCAGGCCGCAGATGAGGAATCAGACTAG,749
4,GGGCCGAAGGGGTTCGCACGCCAAGAACCGCCATGC,722
5,CAGCTGCTGTGGGTGGTGGTGGGCAGGGAGCCCTCC,787
6,GCGGGCGCACTGCGGGGGCCAAGGAACGAAGAAATG,728
7,GACGGAGGAGGTGTAGTTCTGTCTCCTTGCGGCCTC,769
8,GGGAAGAGGCGGTTGGGCTGCGCAAGGACGGGGCGC,732
9,GCTGCGGCGGCGGCGAAGAGACAACCTCCGCTGGAA,793
10,AGCTGCTTGCTGCATCTCAGGCCTTTCTGCGGCCTC,692
11,CTGCACAGCTGTGGTTGTGTAACGTCCCCCAGATGC,735
12,TCAGAGACTTTCGCTCAGCAGCAGCTGCGGCCAGGC,644
13,TAGAGGAGCAGCCGCAGACCAGACATACGGGTCCCT,680
14,ACCCTCTTTTCGGTGGAAAGCTGCGGCCTCCCAGAG,805
15,TTGCATGTGGTTTAGGCTGTAGTCTCCTCCTGTAGT,1200
16,GGTGGCCGCCTGAAGTGTGACCGCGGGAGGGGAGTG,797
17,TCCGCGGTGCCTCTAGGGGGCGGGGCTTACGGCTGG,684
18,AACCTGTGGGTGGGAGGTGAAGTGGAACGGTCCCGG,793
19,GCGCCCGAAACCGCTGGCCCGGCAACCCCGAAACGT,1100
20,GTTTTCAAGGCAGCAAGTGGCTGTGGTGGCACGGAG,837
21,GCGGGCGTGTGTGGGGGCGACGGCGTACGGGAGGCT,843
22,TGGTTCATGTGGGTGCACACAGCAAATGAGAGAACG,748
23,CCAAGCACTTGCTGCTGTTAGCTTTGTGGGCTGAGT,775
24,AGCTTTCTGTGGTGTAAACAGCAAGCGAGACCATGT,788
25,TGAAGTTGTGGGACGAAGCCAGCAAGTCAGCCCAGA,694
26,AATCCACCTGAAACACTTAGACGCCGCAACCCCAGT,1100
27,CCTGAGCGCCCGAAAGGAAGGCTGTGGTAGGTTGTC,801

row,Sequence,RUNX1 binding intensity
1,AAGCTGGGTGTGGTCTCCTGGGCAGGGAGCCACCAA,779
2,TCTCCCTGCCCGCAAGTCAAAGCCACTGCCTTTTCC,2570
3,GCAGCAAGCGCGGACCTGGGGTTGCGGCGTCTAAGT,718
4,AGGGTTTGTGGGTTATCAGGCTTTGCTGCCATAAAC,1090
5,CAAGCCAGCAAGAGGGCCCTCACCAGAAACCGCACT,1040
6,CTCCTTGTGGGGCGCAGGGACATGAAGCAGGGTTTA,734
7,CAGGCCTTTGCTGCTATCGTTTGTGGTTTGAGCAGT,1390
8,GCGGGGCGGGGTACCGCGGAGTCATCATGGCAACCC,868
9,CTTCTCGCGGGAGCGGCACAAGCCGCAGTACAGCGC,695
10,CACCTCGGGGGTCTCCGGTCCGTGGTTAGCTCCTTC,867
11,CCCTGCTGGAACACGTGCGCCTGTGGTGACCCGGCA,788
12,ACCGAAACTGCGGCCCAGCAAAAAGGGAACTAGGGG,858
13,CAGGGCCCGGCATACGCGCCATGGACCGCGCAGCTT,704
14,AAGAACCCACATCAAAGGCTCCCAGCAAGCGCGAGC,761
15,ACAGCAAGTGTCTCTATAGAAACCAAACCACAGAAA,994
16,AGGAGGGGGAAACCACCAAAGCCAGGCAGTTACACA,892
17,GGCTTCTTGTGGGGTGATACAGGGGCTGCCTCGTCC,877
18,AAGAAAGGTTCCAGCCTGCGCCCTGCTACCGCGGCG,738
19,GGGTGAGTAGTTCCTCCTGCGGTGGGTCGGCATGTA,738
20,CCCCCTGAACATACGGGGCCTTTTAACCGCCCACGG,910
21,GCAGGTCCACCGCGCATGCCTGAAGAGGAGGCCCAG,805
22,GAGGAGGAGGTGCGCTGGCTGTTCTGCTGCGGGCCG,704
23,AAGCCCCGCAACAGCTCCCTTCCACCTGAAGCGTCC,945
24,GCGCGGTCTGGGGGTCCCCGGCGCATAGCCGGGTCT,804
25,GACCATGGAGCCGCAGCCGAGTCCCGTGTCCACTTC,992
26,GTAGGTGTGGTACGCCGCACCAGCAAATACTGAAAC,682
